The supplement of paper PMC10126150
Values marked as one replicate rest on one cluster of the flow cell; about a third of the high ones do not repeat.

Test system: ATP
Experiment: switch fluorescence ratio, 500 uM ATP over buffer (Cy3 cluster intensity, sum of 5 cycles each) (fold (ratio)); higher = stronger signal-on switching upon ATP binding; sequences stand for … in TCGTCGGCAGCGTCAGATGTGTATAAGAGACAGTTTTTTTTTTTTTTTTTTTTTTTTT…TC
Details: aptamer strand: ATP DNA aptamer (quencher-CACCTGGGGGAGTATTGCGGAGGAAGG + anchor), 100 nM annealed; ATP concentration: 500 uM; one replicate
In short: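 Imaging in selection buffer was followed by imaging after 15 min with 500 uM ATP at 22 °C, for Cy3-labelled switching-strand clusters annealed to 100 nM quencher-labelled ATP aptamer on a modified Illumina MiSeq flow-cell. Five of these buffer/ATP cycles ran, separated by NaOH stripping and re-annealing. The fluorescence ratio per cluster is summed target-cycle over summed buffer-cycle Cy3 intensity, averaged per switch-domain sequence; clusters outside 100-1000 RFU were removed.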
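Note: ATP exposure 15 min at 22 °C before imaging.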

Sequence | switch fluorescence ratio
ATAACTTTCT | 1.08
CGGTAAACTA | 1.01
ACGCTAGCCA | 1.12
AAAGTTCTTA | 0.956
TGTCTTATAT | 1.01
AACGCGGACG | 1.02
CACTTTGGCC | 1.02
ATGAAAATGA | 1.03
ACCAGGCGCA | 1.12
GGAGTATTG | 0.974
GAATATAGTC | 1.05
AGAGCAGATG | 0.992
TCTTATTGAG | 0.976
AACGCGGACT | 1.2
TGAGTGTGGA | 1.04
TGATACCCTT | 1.01
CCGGTCAATT | 1.68
CATTATGATC | 0.982
ACGTACATCG | 1.43
AGGTGTTGGC | 1
TCGAGCTCGG | 1.02
ATTCCCTAAG | 1.04
AATATCCCTG | 1.03

Sequence | switch fluorescence ratio
AATGAACAAG | 1.04
GTTGTGCTCC | 1.06
TTGAGGGTA | 0.99
GCGCCAGG | 1.3
AAGTTACTTA | 1.08
TAGAAAACTC | 0.982
GGAAGTGCTC | 1.03
TAGGGCATCC | 1.06
TTGCCATTTT | 1
GTGTGGGCGT | 0.989
CATCGGATCG | 0.967
GGGCTAATTT | 1.01
TACGGATTAA | 1.01
ACTTTGTTAT | 1.02
AACATATTAG | 1.02
ATTTCTCCG | 1.81
GGACGCTTTT | 1.03
GCGCCCCGGG | 1.04
AAAACCCGC | 1.07
TTACAGCTCT | 1.02
TCTCGGTGCG | 0.996
CGTTAGCTAA | 1.03
CGTTAGACCC | 1.02

Sequence | switch fluorescence ratio
TACACGATCC | 1.03
CCTCCTCTTC | 1.88
CGGGGCGCA | 1.02
GACTGGGTGT | 1.19
CGTTGATGGC | 1.03
CCAATTTCGG | 0.99
CTGCCTCGAA | 1.04
TCATTTATCC | 1.04
TGATAGATAG | 0.981
TTGGATCTTT | 1.03
CTACACTCTG | 1.03
ACAGACCGGG | 1.07
CCGCCTCGCG | 1.02
AATCGTTTCT | 1.04
GCTGCAAATA | 0.968
AGTGTGGTCG | 1.08
CTTGGGCCTG | 1.2
TCGGGGCCCT | 0.982
GTGCTTGTCT | 0.97
GATCTATTCA | 1.02
AGCATTTGG | 1
AGGGAGTG | 0.953
TTAAGCGTTG | 0.953

Sequence | switch fluorescence ratio
AACGAGATCA | 0.978
TTAAAGTTCC | 1.14
GTCAAACTGA | 0.966
TAATGCTAGC | 1.01
GCCTTGGACA | 1.04
AATCCAGGGT | 1.08
TTCACCGAA | 1.09
GCAGTCGGTC | 1.03
GGGGGTTAGC | 0.99
CTTATTTTCT | 1.07
AGAAGAGACT | 1.02
GATACGTCAG | 1.02
ATGAAAGGA | 1
ATCTACAAGC | 1.06
AATGCGTGGG | 0.987
CCTGTCTCAA | 1.49
TGAGAAACGT | 1.07
CGCCCAATTG | 1.51
ATCACGGTAG | 0.972
CGCAGGGTAG | 1.01
AGTAACAAGT | 1.05
GGAATATGGT | 0.969
GGGCAGAAAA | 0.998

Sequence | switch fluorescence ratio
GCGAGGCGAG | 0.997
AGGGAGCCGT | 0.942
TTGGCCATCA | 1.01
TCAGCTTAGC | 1
ACCGTCCTTT | 1.05
AAATTTGGA | 0.973
TGTTGATCGT | 0.954
GTTTAGAGAT | 0.996
GCATTATAAT | 1.03
CTGCCAAATT | 0.992
TAAACTTGCA | 1.01
CATGATGCGG | 0.988
GTTTGCCTTG | 1.01
TTCTGCGTTT | 0.989
ACTTCGCGCG | 1.06
CATCTTAAT | 1.01
CGGTACGCGC | 1.06
CTGGGGGCC | 1.04
CTATTGTTAC | 1.03
AATTTTACAA | 1.05
ATATCTGTGT | 0.946
TGGTATTAAT | 1.02
TCATTCGTAT | 1.01

Sequence | switch fluorescence ratio
GAGTAGGGGC | 1.06
AGTTTATGAT | 0.997
CTGTCTTTG | 0.996
GGATGCATGG | 1.04
CCGAGCTCTA | 2.2
GCCGGGTCTC | 1.04
TTAGTACAAG | 1.05
CGAAGAGCTC | 1.02
CAGCAAGTTT | 1.08
CGCAACCTTT | 1.27
GCTCACGTAA | 2.23
TATACTGTGT | 1.01
TTAGAGGCAC | 1.03
CATCGGTGTA | 0.985
GGACAAGGTC | 1
CGCACTTTCA | 1.05
TGGGTGTGTG | 0.996
CGACCGAAGA | 1.04
AAAGGATTC | 0.998
TCCTAGTTGG | 1.01
GAGAGAAAAA | 0.988
GATCTTGTTG | 0.966
AGGGGTCCAG | 1.08

Sequence | switch fluorescence ratio
AAGGATTGGC | 1.09
CAATGTTAAC | 0.978
TGGTACGCTC | 1.06
GAGCCTGTAT | 0.998
TTCAGTATGC | 1.04
CAGCACGTTG | 0.988
AGGGATGCCT | 0.998
ATTGATAACG | 1.04
TACTCACGGT | 1.39
ACGCCATTTA | 1.17
GCTGCGCA | 1.1
AGTTGCGAGA | 0.978
GGTTGCACCA | 1.03
CGGGGACCCA | 1.02
ACCAGGGAAG | 1.03
TAGATACGCA | 1.09
GCGTCCTAGC | 1
ATCTTGCGC | 1.03
CGTAATTTTT | 1.01
